# Assay results as given in the supplement of paper PMC7826260.
# The other results are listed elsewhere or left out. Viral Rep nickase domains cut single-stranded DNA in vitro (1 h at 37 °C, 3 µM enzyme); the outer parts of the 90-letter strands are left off. Uncut reads are compared with the no-enzyme pool on a log2 scale; strong cutting gives strongly negative numbers. There is no active / inactive call. Shares of all reads are compared; uncut strands gain when others are lost, and binding without cutting may add a little.
# How the values were obtained:
# Assay in all cases: uncleaved DNA left, log2 of reads against the no-enzyme library (log2 ratio); higher = less cleavage (more negative = more Rep cleavage of the k-mer); sequences stand for … in CTCGTCCG…ACCGGAGA
# [1] = system: T1, Rep nickase domain of Muscovy duck circovirus
# T1 sequence (residues 1-111, tag not shown): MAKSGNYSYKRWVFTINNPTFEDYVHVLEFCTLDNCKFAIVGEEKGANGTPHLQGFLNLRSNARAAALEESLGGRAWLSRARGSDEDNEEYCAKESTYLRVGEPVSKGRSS
# Description: (§1)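 A pool of 90-nt single-stranded DNAs with seven random bases just before the constant AC of the nick site (name = the seven bases) was cut by 3 µM recombinant His6-SUMO-tagged Rep nickase domain (300 nM DNA, 50 mM HEPES pH 8.0, 50 mM NaCl, 1 mM MnCl2, 1 h, 37 °C, three replicates). Uncut DNA was amplified and sequenced.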
# [2] = system: T2, Rep nickase domain of banana bunchy top virus
# T2 sequence (residues 1-94, tag not shown): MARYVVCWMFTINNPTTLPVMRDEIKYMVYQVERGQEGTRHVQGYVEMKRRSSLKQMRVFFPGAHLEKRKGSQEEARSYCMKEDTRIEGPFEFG
# Description: as §1
# [3] = system: T3, Rep nickase domain of cabbage leaf curl virus
# T3 sequence (residues 1-116, tag not shown): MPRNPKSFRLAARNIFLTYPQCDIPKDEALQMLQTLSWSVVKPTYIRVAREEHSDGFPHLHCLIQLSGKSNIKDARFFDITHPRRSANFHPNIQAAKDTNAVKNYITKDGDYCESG
# Description: as §1
# [4] = system: T4, Rep nickase domain of chickpea chlorotic dwarf virus
# T4 sequence (residues 1-124, tag not shown): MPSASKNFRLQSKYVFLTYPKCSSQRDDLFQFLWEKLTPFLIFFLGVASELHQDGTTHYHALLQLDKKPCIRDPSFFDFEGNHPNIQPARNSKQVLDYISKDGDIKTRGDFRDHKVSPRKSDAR
# Description: as §1
# [5] = system: T5, Rep nickase domain of faba bean necrotic yellows virus
# T5 sequence (residues 1-98, tag not shown): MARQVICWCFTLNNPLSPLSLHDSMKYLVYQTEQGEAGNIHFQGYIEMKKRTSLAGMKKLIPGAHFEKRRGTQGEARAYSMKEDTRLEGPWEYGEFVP
# Description: as §1
# [6] = system: T6, Rep nickase domain of maize striate mosaic virus
# T6 sequence (residues 1-117, tag not shown): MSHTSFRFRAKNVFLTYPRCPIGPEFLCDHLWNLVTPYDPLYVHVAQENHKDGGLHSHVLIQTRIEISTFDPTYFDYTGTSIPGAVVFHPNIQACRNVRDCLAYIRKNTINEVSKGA
# Description: as §1
# [7] = system: T7, Rep nickase domain of porcine circovirus 2
# T7 sequence (residues 2-116, tag not shown): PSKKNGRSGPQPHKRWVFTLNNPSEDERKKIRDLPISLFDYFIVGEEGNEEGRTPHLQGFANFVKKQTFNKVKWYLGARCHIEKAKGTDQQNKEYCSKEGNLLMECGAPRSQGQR
# Description: as §1
# [8] = system: T8, Rep nickase domain of tomato golden mosaic virus
# T8 sequence (residues 1-124, tag not shown): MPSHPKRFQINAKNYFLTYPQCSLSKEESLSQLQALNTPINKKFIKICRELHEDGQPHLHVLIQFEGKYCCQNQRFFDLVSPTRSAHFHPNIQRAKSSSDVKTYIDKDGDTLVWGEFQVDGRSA
# Description: as §1
# [9] = system: T9, Rep nickase domain of tomato yellow leaf curl virus
# T9 sequence (residues 1-136, tag not shown): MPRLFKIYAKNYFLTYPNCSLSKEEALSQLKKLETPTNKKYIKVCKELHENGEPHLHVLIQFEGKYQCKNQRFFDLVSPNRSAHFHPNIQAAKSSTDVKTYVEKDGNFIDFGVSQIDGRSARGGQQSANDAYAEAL
# Description: as §1
# [10] = system: T10, Rep nickase domain of wheat dwarf virus
# T10 sequence (residues 1-137, tag not shown): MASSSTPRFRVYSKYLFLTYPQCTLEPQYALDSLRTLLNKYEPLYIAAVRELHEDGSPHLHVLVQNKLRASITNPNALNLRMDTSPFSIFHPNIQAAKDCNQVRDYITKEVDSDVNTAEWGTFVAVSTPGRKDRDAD
# Description: as §1
Sequence,uncleaved DNA left (log2) [1],uncleaved DNA left (log2) [2],uncleaved DNA left (log2) [3],uncleaved DNA left (log2) [4],uncleaved DNA left (log2) [5],uncleaved DNA left (log2) [6],uncleaved DNA left (log2) [7],uncleaved DNA left (log2) [8],uncleaved DNA left (log2) [9],uncleaved DNA left (log2) [10]
ACTATAT,-0.0834,-0.0102,-0.136,-0.817,-0.0478,-0.749,-2.24,-0.0215,-0.154,-0.113
TGATCTC,0.0853,0.101,0.221,0.48,-0.00893,1.1,0.0411,0.0328,0.0637,0.0693
TACGTGG,-0.0135,-0.113,0.0418,-0.00922,0.00742,-0.173,0.0876,0.0165,0.0117,-0.0449
TTTCTTA,-0.0616,0.0267,0.261,-0.549,0.0834,0.216,-0.228,0.0625,0.0443,-0.0558
TCGATTT,-0.101,-0.228,-0.408,-2.07,-0.0922,-0.193,-1.53,-0.133,0.0544,-0.142
CAGGAGG,0.0835,-0.144,0.0872,0.383,0.00135,-0.284,0.134,0.0137,-0.101,-0.0255
GATGAAA,-0.07,0.0851,0.142,0.768,-0.112,1.27,0.0608,-0.0462,0.0301,0.0122
AATGGGG,0.024,-0.047,0.123,0.375,0.00221,-0.188,0.271,0.0174,-0.114,-0.0754
ACATGCT,-0.473,-0.148,-0.838,-1.42,0.011,-0.963,-0.735,-0.133,-0.0137,-0.176
GTCGCAG,0.0953,0.21,0.409,0.931,-0.021,1.84,0.339,0.15,0.136,0.167
GTCTATT,-2.39,-0.285,0.164,0.238,0.0352,1.65,-2.81,-0.00728,0.0453,-0.0731
CCAGCTA,-0.0931,-0.0157,-0.0451,-0.366,-0.0338,0.087,-0.0127,-0.137,-0.143,-0.0585
CTCTGGC,0.0171,0.0315,-0.247,-0.527,0.0596,-0.939,0.0915,-0.0306,0.024,-0.0619
AGTGCAG,-0.0584,0.0402,-0.304,-0.04,0.012,-0.407,0.143,0.0519,-0.0559,-0.0527
TGGGTTG,0.0401,-0.0663,0.13,0.266,-0.0313,0.412,0.0773,-0.0774,-0.0488,0.0812
TTCGCCG,-0.0742,-0.242,-1.03,-0.354,-0.151,-1.14,-0.134,-0.276,-0.174,-0.264
ACTGGGC,-0.0496,-0.0943,-0.21,-0.0279,-0.062,-0.598,0.199,-0.0408,-0.0256,-0.171
ACAATCT,-0.0215,0.0674,-0.379,-2.24,-0.0158,-0.825,-0.0704,–,-0.0598,0.0867
GTGAGTC,0.0683,0.072,0.328,0.805,-0.016,1.73,0.162,0.0663,0.0201,0.00389
TATAAAC,0.044,-0.0114,0.148,-0.252,0.0332,-0.31,0.121,0.0866,0.0841,0.0849
TAAAGTC,0.064,-0.0573,-2.22,-2.87,0.0588,-1.34,0.0911,-0.189,-0.0253,-0.762
TTAGAAC,0.0226,-0.0319,0.127,-0.282,-0.0599,-0.248,0.0133,–,0.0446,0.0819
GTAAGCT,-0.087,-0.0771,-0.468,-1.46,-0.0242,0.897,0.00714,-0.017,-0.0379,-0.0589
CGTACGG,0.01,0.0133,0.228,0.889,-0.0765,1.73,0.119,-0.0246,-0.0539,0.0565
CCATTAA,-0.144,-0.178,-0.492,-0.479,-0.146,-1.25,-0.0298,-0.114,-0.215,-0.221
ACGCGCC,-0.138,-0.291,-0.58,-0.77,-0.0695,-0.95,-0.0983,-0.163,-0.228,-0.276
CATTGCT,-0.461,-0.793,-0.422,0.402,0.0441,0.38,-1.2,-0.151,0.0419,-0.159
TGCAAGT,-0.0466,0.0325,-0.0682,-0.252,0.0283,-0.732,0.0697,0.0337,0.0871,0.0316
CCCTCAC,0.0712,-0.094,0.157,-0.417,0.144,-0.3,0.024,0.189,-0.0521,0.0795
TAAGCGT,-0.00528,-0.0857,-1.15,-1.82,0.0639,-1.02,0.106,-0.0605,0.0444,-0.141
